# Experimental data reported in the supplement of paper PMC3724861.
# This is one part of the list.
# Tested on: T1, Caupolican (Caup) homeodomain DNA-binding domain
# T1 sequence: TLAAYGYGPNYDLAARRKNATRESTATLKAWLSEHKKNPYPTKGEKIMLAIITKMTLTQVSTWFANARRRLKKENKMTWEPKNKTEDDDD
# Test: PBM E-score (8-mer, recovered from the published 9-mer minima) (E-score (dimensionless, -0.5 to 0.5)); Drosophila protein; higher = stronger relative binding preference, active = 0.31 or more
# In short: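 Caup's homeodomain DNA-binding domain (residues 214-303) was produced by in vitro transcription and translation and applied at 100 nM to custom-designed protein binding microarrays. Each value is an enrichment score giving relative binding preference for a short DNA word; higher means stronger. Published 9-mer scores were the minimum of their two constituent 8-mer scores, and the 8-mer values were recovered from those minima. A cutoff of 0.31 marks candidate binding sequences.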
row,Sequence,PBM E-score
1,CATACCCG,inactive: -0.0573
2,GACCCGGA,inactive: -0.222
3,CCAAGTGC,inactive: -0.122
4,AACGCGTA,inactive: 0.0291
5,AGAACACG,active: 0.33
6,CAACACAG,inactive: 0.186
7,GGCGTTGA,inactive: -0.0877
8,GTTACTGA,inactive: 0.0723
9,ACCTTGCC,inactive: -0.0691
10,ACGCCAAC,inactive: -0.0473
11,GGCCGAGA,inactive: -0.214
12,TGCTGGAA,inactive: -0.00021
13,ATGTGCGG,inactive: 0.0311
14,ACTATTCC,inactive: 0.0305
15,GGTACTGA,inactive: -0.00654
16,GAGTCGCC,inactive: -0.256
17,CGGTTGAG,inactive: -0.0733
18,GCGCTAAA,inactive: -0.0419
19,GTTCGTTA,inactive: 0.0461
20,AAGTCGGT,inactive: -0.0447
21,GGCACTAC,inactive: -0.0645

row,Sequence,PBM E-score
1,CGATTTAG,inactive: 0.0168
2,CCCTTGGC,inactive: -0.267
3,AAATAGAA,inactive: 0.042
4,GTCTGGGA,inactive: -0.086
5,GGGTAACC,inactive: -0.0785
6,AAATATTC,inactive: 0.139
7,CGAGTAAA,inactive: -0.0202
8,AGGTGTAG,inactive: 0.125
9,CATGCAGA,inactive: 0.143
10,AGCGGCAC,inactive: -0.174
11,CTAGGCTA,inactive: -0.103
12,AATCGTAT,inactive: 0.127
13,GATATTAC,inactive: 0.215
14,AGCGGTGC,inactive: -0.145
15,CGCGTTTC,inactive: -0.0801
16,ACAATTGT,≥ 0.193
17,ACCTATGA,inactive: -0.0172
18,CCCTATCA,inactive: -0.0683
19,AAGCATCT,inactive: 0.0398
20,CGAGCGAC,inactive: -0.083
21,AGTAACCA,inactive: 0.0688

row,Sequence,PBM E-score
1,AACCACTC,inactive: 0.124
2,GTCAGTAA,inactive: 0.0579
3,AATATCCG,inactive: 0.042
4,AACTAACA,active: ≥ 0.339
5,GTCTACAC,inactive: 0.139
6,CCTACTGC,inactive: -0.0966
7,CATCCCTA,inactive: 0.0158
8,ACCGGAAG,inactive: 0.00591
9,AGAGCTAT,inactive: -0.0647
10,AAACTGCA,inactive: -0.06
11,CAGGACGA,inactive: 0.0556
12,AGGTTCCC,inactive: -0.15
13,CGCTCTAG,inactive: -0.12
14,CGCACTAG,inactive: -0.0416
15,CTATCCCC,inactive: -0.175
16,AATTGACC,inactive: 0.00485
17,CAGTATTA,inactive: 0.0707
18,GGGACGCA,inactive: -0.169
19,AACATCCC,inactive: 0.184
